# Laboratory results reported in PubChem BioAssay AID1745849 (National Center for Advancing Translational Sciences (NCATS), 2022).
# In all, about 2,100 compounds went through this assay and about 320 (15%) were called active. The inconclusive results got no clear call from the source; some entries with a clear call stand among them for comparison. Calls follow the shape of the dose curve; as a rule, active = well fitted cell-killing curve with a large enough effect; inconclusive = small, poorly fitted or top-dose-only effect, or effect the other way; inactive = flat fitted curve, though single readings scatter. A potency beside an inconclusive call is a rough fit, not a confirmed value.
# Assay: Viability Counterscreen for CMV-Luciferase Assay of Inhibitors of ATXN expression; also: nearly all actives have a fitted effect of over 55% in size
# Conditions: HEK-293 CMV-luciferase cells viability, protease fluorescence, 24 h; activity change, negative = cytotoxicity: at the top concentration
# Summary of the method: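 HEK-293 cells stably expressing a CMV-luciferase reporter were exposed to compounds at several concentrations for 24 hr at 37 degree C. Viability was read as Gly-Phe-AFC fluorescence (25 uM final, 30 min). SteadyGlo luminescence was then measured after 5 min.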
# % is scaled to controls: 0 for no effect and ±100 for the full control effect; potency is read from the fitted curve at half-maximal effect; tags tell the direction and shape of the fitted curve.
Structure (SMILES),"activity change, negative = cytotoxicity",Potency
FC(F)(F)c1ccc(N2CCN(c3cc(-c4ccccc4)nc4ncnn34)CC2)nc1,inactive: -18.5%,–
CCN(CC)CCn1c2ccccc2c2cnc(N)c(C#N)c21,–,"inconclusive: 3.16 µM [cytotoxic, single point]"
Cc1ccc(S(=O)(=O)/N=C(\Sc2ccccc2)c2ccccc2)cc1,–,active: 15.8 µM
O=c1cc(N2CCN(c3cccc(Cl)c3)CC2)[nH]c(=O)n1C1CCCCC1,–,"inconclusive: 3.16 µM [cytotoxic, full curve, poor fit]"
C=CCN1C=CC(=O)[C@@H](OC(=O)Nc2ccc(Br)cc2)[C@H]1c1ccccc1Br,–,"inconclusive: 4.47 µM [cytotoxic, single point]"
O=C(N/N=C/c1c(O)n(Cc2ccccc2)c(=O)c2ccccc12)c1cccnc1,–,"inconclusive: 31.6 µM [rising, partial curve]"
Cc1ccc(C(=O)N/N=C/c2nc3ccccc3n2C)cc1,–,"inconclusive: 31.6 µM [cytotoxic, single point]"
Cc1c(N/N=C(\C#N)C(=O)c2ccccc2)c(=O)n(-c2ccccc2)n1C,–,active: 11.2 µM
CCn1nc(C(=O)Nc2ccccc2N2CCCC2)c2ccccc2c1=O,–,"inconclusive: 39.8 µM [cytotoxic, single point]"
O=C(N/N=C/c1cc([N+](=O)[O-])ccc1O)c1ccc(COc2ccc3c(c2)CCC3)o1,–,active: 11.2 µM
N=c1c2c(n(Cc3ccc(Cl)cc3)c3c1CCC3)CCC2,–,"inconclusive: 2.51 µM [cytotoxic, partial curve, poor fit]"
Cc1cc(Cl)c(C(=O)Nc2cccc(C(F)(F)F)c2)c(C)n1,inactive: -12.7% [at 57.5 µM],–
COc1ccc(C(=O)NC(=S)NNC(=O)c2c(-c3ccccc3)noc2C)cc1OC,–,"inconclusive: 22.4 µM [cytotoxic, single point]"
N#Cc1c(N)n(C2OC(CO)C(O)C2O)c2ncnc(N)c12 (configuration not stated),–,active: 1.41 µM
Cc1cc(SCC(=O)N/N=C/c2ccc(O)cc2O)c(C)cc1Br,–,active: 11.2 µM
Cc1ccc(/C=C2\SC(=S)N(CCCC(=O)Nc3cccnc3)C2=O)cc1,–,"inconclusive: 20 µM [cytotoxic, partial curve, poor fit]"
O=C(Nc1ccc2oc(=O)ccc2c1)c1ccc(-c2cccc(Cl)c2)o1,–,"inconclusive: 22.4 µM [cytotoxic, partial curve]"
COC(=O)c1cc(=O)n(CCc2ccc(OC)c(OC)c2)c(=Nc2ccc(F)c(Cl)c2)s1,–,"inconclusive: 8.91 µM [cytotoxic, single point]"
NC(=O)c1cccc(Nc2nc(C(N)Cc3ccc(C(F)(F)F)cc3)cs2)n1 (configuration not stated),inactive: -20.1%,–
Cc1ccc2c(c1)-c1c(cnn1CC(=O)N1CCCN(Cc3ccccc3F)C1)CO2,inactive: -15%,–
CCN(CC)c1ccc(/C=N/NC(=O)Cc2cccs2)c(O)c1,–,"inconclusive: 2.82 µM [cytotoxic, full curve]"

Structure (SMILES),"activity change, negative = cytotoxicity",Potency
Oc1c(CN2CCN(c3ccccc3)CC2)cc(Br)c2cccnc12,–,"inconclusive: 2.24 µM [cytotoxic, partial curve, poor fit]"
COc1ccc(/C=C/C(=O)c2ccc([N+](=O)[O-])o2)cc1OC,–,"inconclusive: 3.98 µM [cytotoxic, single point]"
O=C(N/N=C/c1ccc(O)cc1O)c1ccncc1,–,"inconclusive: 0.251 µM [cytotoxic, partial curve, poor fit]"
O=C(c1ccc(-c2nnc(Nc3cccc(Cl)c3)c3ccccc23)cc1)N1C[C@H]2C[C@H](C1)c1cccc(=O)n1C2,–,"inconclusive: 8.91 µM [cytotoxic, single point]"
O=c1[nH]c(CN2CCN(c3ncccn3)CC2)nc2c(Br)cc(Br)cc12,inactive: 13.6%,–
NS(=O)(=O)c1ccc(CCNc2ncnc3c2c(-c2ccccc2)cn3-c2ccc(F)cc2)cc1,–,"inconclusive: 28.2 µM [cytotoxic, single point]"
Cc1cc(C)n(-c2ccc(C(=O)N3CCN(S(=O)(=O)c4cccc(Br)c4)CC3)cc2)n1,inactive: 3.92%,–
COCCNC(=O)c1cccc(Nc2nc(-c3ccccc3)c3cc(Cl)ccc3n2)c1,–,"inconclusive: 31.6 µM [rising, partial curve]"
O=C1Nc2c(Br)cc(Br)c3cccc1c23,–,"inconclusive: 14.1 µM [rising, partial curve]"
COc1cccc(C(=O)Oc2c(CN3CCOCC3)cc(Cl)c3cccnc23)c1,inactive: -9.7% [at 57.5 µM],–
CCC1=C(OC(=O)N(CC)CC)N2C(=O)OC(=NCCc3c[nH]c4ccccc34)[C@]2(Cc2ccccc2)[C@H]2C1=CC[C@H]1C(=O)N(c3ccccc3)C(=O)[C@H]12,inactive: -10.1% [at 57.5 µM],–
Cc1cc(C(=O)CN2C(=O)c3ccccc3S2(=O)=O)c(C)n1CC1CCCO1 (configuration not stated),inactive: 7.21% [at 57.5 µM],–
COC(=O)N/N=C/c1cn(CC(C)COc2ccccc2)c2ccccc12 (configuration not stated),inactive: -15.3% [at 57.5 µM],–
COC(=O)C1=C(C)N(Cc2ccccc2)C(=NCCc2cccnc2)N[C@H]1c1ccc(Br)cc1,–,active: 20 µM
COc1ccccc1CNc1nc(NC(C)C)nc2cc(-c3ccccc3)sc12,–,"inconclusive: 22.4 µM [cytotoxic, partial curve, poor fit]"
CCCCC(=O)NC(c1ccccc1Cl)c1ccc2cccnc2c1O (configuration not stated),–,"inconclusive: 2.82 µM [cytotoxic, partial curve, poor fit]"
Cc1ccc(-c2cn(-c3ccc(OC(F)F)cc3)c3[n+]2CCCCC3)cc1,–,"inconclusive: 17.8 µM [cytotoxic, partial curve, poor fit]"
Cc1cc(OCC(=O)NC(C)c2ccccc2)ccc1[N+](=O)[O-] (configuration not stated),inactive: 1.14%,–
O=C(NNC(=O)c1cccc2ccccc12)c1ccccc1O,–,"inconclusive: 12.6 µM [cytotoxic, partial curve, poor fit]"
NC(Cc1ccc(Cl)cc1)c1csc(NC(=O)Nc2ccccc2-c2ccccc2)n1 (configuration not stated),–,"inconclusive: 2.51 µM [cytotoxic, partial curve, poor fit]"
CCn1c2ccccc2c2cc(/C=N/NC(=O)c3ccc(O)cc3)ccc21,–,"inconclusive: 10 µM [cytotoxic, partial curve]"
